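Values below derive from 48-hour exposures of cells grown in 96-well plates, with endpoints linearly interpolated between the two concentrations bracketing the appropriate inhibition level. GI50 = concentration required for 50% inhibition of growth.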 Active and inactive are the calls of the source. Rule as the data show it: active = GI50 up to about 1.1 µM and inactive = higher.
System: NCI-H322M
Assay: NCI anticancer screen, dose series, 48 h

| SMILES | GI50 |
| --- | --- |
| CCOC(=O)C(NCc1ccc2c(c1)OCO2)(NC(=O)c1ccccc1)C(F)(F)F (stereo not drawn) | inactive: > 100 µM |
| CC(Nc1cc(=O)n(C)c(=O)[nH]1)c1ccccc1 (stereo not drawn) | inactive: > 100 µM |
| CCOC(=O)c1cc([N+](=O)[O-])cc([N+](=O)[O-])c1Sc1[nH]cnc2ncnc1-2 | inactive: 5.86 µM |
| CCC1CN2CCc3cc(OC)c(OC)cc3C2CC1CC1c2cc(OC)c(OC)cc2CCN1C(=O)C(Cc1c[nH]c2ccccc12)NC(=O)OC(C)(C)C (stereo not drawn) | inactive: 5.83 µM |
| O=c1oc2ccccc2cc1-c1ccc([N+](=O)[O-])cc1 | inactive: > 100 µM |
| COc1c(C)c2nc3ccccc3nc2c2c(O)ccnc12 | inactive: > 100 µM |
| O=CN/C=C/c1ccccc1 | inactive: > 100 µM |
| CN(C)CCOc1ccc(-c2c(Oc3ccccc3)c(=O)oc3ccccc23)cc1 | inactive: 5.87 µM |
| COc1cc(C2c3cc4c(cc3OC(NNC(N)=O)C2C)OCO4)cc(OC)c1O (stereo not drawn) | inactive: 5.22 µM |
| O=C(O)c1oc2cccc3c2c1CCC3 | inactive: > 100 µM |
| Cc1cc(Cl)ccc1NC(=O)CCCC(=O)C1CCCC1=O (stereo not drawn) | inactive: > 100 µM |
| O=C(Nc1nc2c(ncn2C2OC(CO)C(O)C2O)c(=O)[nH]1)c1ccccc1 (stereo not drawn) | inactive: > 100 µM |
| CCOC(=O)C1=C(Nc2ccc(Cl)cc2Cl)OC/C1=N\NS(=O)(=O)c1ccc(C)cc1 | inactive: > 100 µM |
| CCOC(=O)NC(Nc1ccc(F)cc1)(C(=O)OCC)C(F)(F)F (stereo not drawn) | inactive: > 100 µM |
| CSc1ncnc2c1cnn2Cc1cn(CCCCO)nn1 | inactive: > 100 µM |
| CSc1nc2nc(C)c(C)nc2c(=O)[nH]1 | inactive: 51.3 µM |
| CCc1cccc(C(C)C)c1C1C(=O)C(=O)N(c2nc3ccccc3s2)C(=O)C1=O | inactive: > 100 µM |
| COc1ccc(N2C(=O)C(C)SC2c2cc3cc(Br)ccc3nc2Cl)cc1 (stereo not drawn) | inactive: 33.4 µM |
| COc1ccc(C[C@H]2NC(=O)/C=C/C[C@@H]([C@H](C)[C@H]3O[C@@H]3c3ccccc3)OC(=O)[C@H](CC(C)C)OC(=O)[C@H](C)CNC2=O)cc1 | active: 2.62e-05 µM |
| Oc1ccc2occ3c2c1CCC3 | inactive: > 100 µM |
| CC(=O)OC1C[C@@H](C)C2(CC(c3ccoc3)OC2=O)C2CCC(O)C3(CO3)C12CO (stereo partly drawn) | inactive: > 100 µM |
| Cc1ccc(S(=O)(=O)n2c3ccc(Br)cc3c3nc4ccccc4nc32)cc1 | inactive: > 100 µM |
| O=C(CNc1cccc(Cl)c1)Nn1c(-c2ccccc2)nc2ccccc2c1=O | inactive: 15.4 µM |
| N/C(=N/c1ccc(O)cc1)S(=O)(=O)O | inactive: > 100 µM |

| SMILES | GI50 |
| --- | --- |
| CC1NC(=O)C2Cc3ccc(O)c(c3)Oc3ccc(cc3)C(O)C(C(=O)N2C)N(C)C(=O)C(C)NC(=O)C(Cc2ccc(O)cc2)N(C)C(=O)C(C)NC1=O (stereo not drawn) | inactive: > 100 µM |
| CSc1ccc(NC(=S)NN(C)C)cc1 | inactive: > 10 µM |
| CCOC(=O)/C(=C\NCC(O)c1ccccc1)c1nc2ccccc2[nH]1 (stereo not drawn) | inactive: 30.3 µM |
| O=C1C(Cl)=C(NCCN2CCOCC2)C(=O)c2c(O)ccc(O)c21 | inactive: 2.05 µM |
| CN(CCNCc1cn(C)c2c1ccc1ccccc12)CCNCc1cn(C)c2c1ccc1ccccc12 | inactive: 1.66 µM |
| CC(C)(C)C(=O)ON1N=NC2C3CC(OCc4ccccc4)(OCc4ccccc4)C(O3)C21 (stereo not drawn) | inactive: 33.3 µM |
| O=C(CSc1nnc(Cc2ccccc2)o1)Nc1cccc(Cl)c1 | inactive: > 100 µM |
| O=c1nc(-c2ccccc2)c2c3c(cccn13)CCC2 | inactive: > 100 µM |
| c1cc2c(s1)-c1sccc1C21OCCO1 | inactive: > 100 µM |
| Cc1cc(O)c2c(c1O)C(=O)C1=C(C2=O)C(=O)C2C(O)C1C1C(O)CC(O)=C3C(=O)c4c(O)cc(C)c(O)c4C(=O)C321 (stereo not drawn) | inactive: 1.56 µM |
| S=c1c2nc[nH]c2ncn1CCSC1=NC=NC2=NC=NC21 (stereo not drawn) | inactive: > 100 µM |
| COC1=C2CC(C)CC(OC)C(O)C(C)/C=C(\C)C(OC(N)=O)C(OC)/C=C\C=C(/C)C(=O)NC(=C(/C=N/N3CCCCC3)C1=O)C2=O (stereo not drawn) | inactive: 33.3 µM |
| COc1cc(OC)cc(N(C)Cc2cnc3nc(N)nc(N)c3c2C)c1 | inactive: 5.55 µM |
| CCN(CC)C(=S)SS(=O)(=O)c1ccc(F)cc1 | inactive: > 100 µM |
| O/N=C(\C=N\O)c1ccc2c(c1)Sc1ccccc1O2 | inactive: 35.2 µM |
| CC(C)=CCC[C@@H](C)C1=C(O)C(O)C(C)=C2N=C(c3ccccc3)C(=O)OC21 (stereo partly drawn) | active: 1.08 µM |
| CCOC(=O)c1cn2c(n1)sc1cc(Cl)cc(Cl)c12 | inactive: > 100 µM |
| C=CCOc1ccc(C(/N=N\c2ccc(Cl)cc2)=N/NC(=O)c2ccccc2)cc1OC | inactive: > 100 µM |
| Brc1ccc(/N=c2/nc3ccccn3n3nc(-c4ccccc4)cc23)cc1 | inactive: 30.1 µM |
| CC(=O)/C=C1/c2ccccc2N(C(C)=O)C1O (stereo not drawn) | inactive: > 100 µM |
| CCC1CN(C(=O)c2ccccc2)C(Cc2c[nH]c3ccccc23)C(=O)C1CC(=O)OC (stereo not drawn) | inactive: 54.3 µM |
| CCCCCCCCC[C@@H]1CC(=O)OCC2OC(O[C@H](CCCCCCCCC)CC(=O)OCC3OC(O[C@H](CCCCCCCCC)CC(=O)OCC4OC(O1)C(O)C(O)C4O)C(O)C(O)C3O)C(O)C(O)C2O (stereo partly drawn) | inactive: 10.9 µM |
| O=C(NO)c1cccc(OCc2ccc(Br)cc2)c1 | inactive: 4.23 µM |
| CCCCCCCCCCCCCCCCCc1cccc(OCOCCOC)c1CO | inactive: > 100 µM |

| SMILES | GI50 |
| --- | --- |
| O=[N+]([O-])c1cc(Cl)cnc1Br | inactive: 10.6 µM |
| COc1nc(=O)cc(N)n1C1OC(CO)C(O)C1O (stereo not drawn) | inactive: > 100 µM |
| Nc1c(-c2ccccc2)c2ccc([N+](=O)[O-])cc2c(=O)n1-c1cccc(C(=O)O)c1 | inactive: > 100 µM |
| CCOc1ccc(N/C(=C(/C(Cl)=C(/Cl)NCCO)[N+](=O)[O-])n2nnc3ccccc32)cc1 | inactive: 49.2 µM |
| C/C(=N\N=C(N)N)c1c(C(=O)OCCCCCCOC(=O)c2nc3sccn3c2/C(C)=N/N=C(N)N)nc2sccn12 | inactive: > 100 µM |
| Cc1cccc(Nc2cn(CCOc3ccccc3)c(=O)[nH]c2=O)c1 | inactive: > 100 µM |
| C/C=C1/CN2CCC34c5ccccc5N(C)C23C2CC1C4(C(=O)OC)C(O)O2 (stereo not drawn) | inactive: > 100 µM |
| NC(=S)N1N=C2CCCCCC[C@@H]2[C@H]1c1ccccc1 | inactive: 42.6 µM |
| Cc1ccc2c(c1)Nc1ccccc1P2(=O)O | inactive: > 100 µM |
| COC1C(=[N+]=[N-])C(=O)NC(=O)N1C1OC(COC(c2ccccc2)(c2ccccc2)c2ccccc2)C(O)C1O (stereo not drawn) | inactive: 16.7 µM |
| C/C1=C\CC[C@@]2(C)O[C@@H]2C[C@@H]2[C@H](C/C(C)=C/CC1)OC(=O)[C@]21CO1 | inactive: > 100 µM |
| COC(=O)[C@H](Cc1ccccc1)NC(=O)N1CCCN(C(=O)N[C@@H](Cc2ccccc2)C(=O)OC)CCCN(C(=O)N[C@@H](Cc2ccccc2)C(=O)OC)CCC1 | inactive: 14.9 µM |
| COC1(C2c3ccccc3CCN2C(=O)OC(C)(C)C)C(=O)C(c2ccccc2)=C1N(C)C (stereo not drawn) | inactive: 31.8 µM |
| Oc1ccc(O)c(CNc2ccccc2)c1 | inactive: 35.6 µM |
| Cc1cc2cc(Cl)ccc2nc1C(=O)c1ccccc1 | inactive: > 100 µM |
| C/C=C/CP(=O)(c1ccccc1)c1ccccc1 | inactive: > 100 µM |
| CC(NS(C)(=O)=O)c1ccccc1 (stereo not drawn) | inactive: > 100 µM |
| NC1=C(N2CCOCC2)C(=O)NC2=N/C(=C\c3ccccc3O)C(=O)N21 | inactive: > 100 µM |
| C=CC[C@]1(/C=N/O)CN(S(=O)(=O)CC[Si](C)(C)C)C[C@H]2CC=CC[C@H]21 | inactive: 26.1 µM |
| CC(C)(CN1CCCCC1)C(=O)CC(SCCS(=O)(=O)O)c1ccc(Cl)cc1 (stereo not drawn) | inactive: 8.99 µM |
| C=CC1(C)OC2(CCN(C(=O)OCC)CC2)OC1C (stereo not drawn) | inactive: > 100 µM |
| N=C(c1ccccc1)N(O)C1CCCCC1 | inactive: > 100 µM |
| O=C1c2cc3ncsc3cc2C(=O)c2c(O)ccc(O)c21 | inactive: > 100 µM |
| O=c1[nH]c2ccccc2cc1C(Cl)=C(Cl)Cl | inactive: > 100 µM |

| SMILES | GI50 |
| --- | --- |
| c1c[nH]c(C23C4C5C6C4C2C6C53)n1 (stereo not drawn) | inactive: > 100 µM |
| CO/C(=N\N=C(/C)C(F)(F)F)c1ccncc1 | inactive: > 100 µM |
| O=c1[nH]c(=O)n(C2OC(CO)C(O)C2O)cc1OCc1ccccc1 (stereo not drawn) | inactive: > 100 µM |
| Nc1ccc(C(=O)NN2C(=O)C(Cl)C2c2cc(Br)cc(Br)c2O)cc1 (stereo not drawn) | inactive: 5.27 µM |
| COc1cccc(C=C(C#N)C#N)c1OC | inactive: > 100 µM |
| CCOC(=O)C(Cc1cc(OC)c(CC(C(=O)OCC)C(=O)OCC)cc1OC)C(=O)OCC | inactive: > 100 µM |
| CCOC(=O)NC(Nc1ccc(S(=O)(=O)Nc2nc(C)cc(C)n2)cc1)(C(=O)OCC)C(F)(F)F (stereo not drawn) | inactive: > 100 µM |
| CC1=C2c3c(C)ccc4ccc(C)c(c34)C2(O)C(C)C1=O (stereo not drawn) | inactive: > 100 µM |
| Clc1ccc(-c2nc(-c3ccc(Cl)cc3)[s+]s2)cc1 | inactive: 52.1 µM |
| CC(C)CC1C(=O)OC(C)(C)OC1=O | inactive: > 100 µM |
| COc1cc(C2S/C(=C/c3ccccc3)C(=O)N2Cc2ccccc2)cc(OC)c1OC (stereo not drawn) | inactive: > 100 µM |
| O=C(Cc1nc2ccccc2o1)C(=O)Nc1ccccc1C(F)(F)F | inactive: > 100 µM |
| O=C(O)CCNCCCNCCC(=O)O | inactive: > 100 µM |
| CC(=O)OCC1OC(n2c(S)nc(-c3ccccc3)c(C#N)c2=O)C(OC(C)=O)C(OC(C)=O)C1OC(C)=O (stereo not drawn) | inactive: > 100 µM |
| Cc1nnc(N/N=C2/C(=O)Nc3ccccc32)nc1O | inactive: > 100 µM |
| O=[N+]([O-])c1ccc(/N=N/c2c(O)ccc3cc(S(=O)(=O)O)cc(S(=O)(=O)O)c23)cc1 | inactive: > 100 µM |
| CC(C)(Oc1ccc(C2C[C@H]2Cl)cc1)C(=O)O (stereo partly drawn) | inactive: > 100 µM |
| CC(=O)OC1CC2C(C)(C)C(=O)C=C[C@]2(C)C2CCC3(C)C(=CC(=O)C3c3ccoc3)[C@]12C (stereo partly drawn) | inactive: 15.3 µM |
| C=C1C(C(=O)OC)[C@H]1C(=O)OC (stereo partly drawn) | inactive: > 100 µM |
| O=C(O)c1cc2c(ncc3c(=O)n(-c4ccccc4)[nH]c32)s1 | inactive: > 100 µM |
| CCCCOc1ccc(S(=O)(=O)N/C(=N\O)Nc2ccc(Cl)cc2)cc1 | inactive: 15.9 µM |

— ChEMBL document CHEMBL1201862, “PubChem BioAssay data set” (2004)
